Results from patent US20130158024A1, “TRICYCLIC NECROSTATIN COMPOUNDS” (priority 2005, published 2013).
“Also recorded” adds a separate entry of the source. Read-outs that look alike come from different tables or passages of the source. Where a SMILES comes first, the peptide text is derived from it. The star is where a group is joined. Cbz = O=C(OCc1ccccc1)*; CH2F = FC*

How the values were obtained:
[1] = tested on: mouse two-hour middle cerebral artery occlusion (MCAO)/reperfusion model of brain ischemia; settings: for infarct volume, combination with zVAD.fmk, in words: coadministration with zVAD.fmk (160 ng); for caspase-3 activation in ischemic brain, in words: western blotting, three hours after reperfusion
[2] = tested on: mouse two-hour middle cerebral artery occlusion (MCAO)/reperfusion model of brain ischemia; settings: two-hour ischemia-reperfusion model following MCA occlusion; cited from earlier work

Molecule	effect on general physiology, in words ([1]; blood oxygen and CO2 levels, body temperature, cerebral blood flow)	infarct volume, combination with zVAD.fmk, in words ([1]; listed as LDN53064)	caspase-3 activation in ischemic brain, in words [1]	caspase-3 activation in ischemic brain, in words ([1]; listed as 7-C1-Nec-1)	therapeutic window reported for other drug candidate classes [2]	infarct volume, combination with zVAD.fmk, in words [1]	LC3-II induction in ischemic brain, in words ([1]; injection at four and six hours, brains collected eight hours after occlusion)
CN1C(=O)C(Cc2c[nH]c3c(Cl)cccc23)NC1=S (centres unmarked) [Compound 7-Cl-Nec-1]	did not affect blood oxygen and CO2 levels, body temperature or cerebral blood flow	additive effect of LDN53064 with zVAD.fmk on infarct size	does not inhibit caspase-3 activation during brain ischemia; also recorded: not associated with a reduction of caspase-3 activation	did not block caspase-3 activation during ischemic brain injury			
COC(=O)C[C@H](NC(=O)[C@H](C)NC(=O)[C@@H](NC(=O)OCc1ccccc1)C(C)C)C(=O)CF [zVAD.fmk, N-benzyloxycarbonyl-Val-Ala-Asp-(OMe) fluoromethyl ketone, reference compound] (Cbz-Val-Ala-Asp(OMe)-CH2F)			whereas zVAD.fmk did		effective up to three hours postocclusion		
methylthiohydantoin-tryptophane [Nec-1]						demonstrated an additive protective effect with the caspase inhibitor	delayed administration of Nec-1 inhibited LC3II generation
